# From PubChem BioAssay AID686979 (National Center for Advancing Translational Sciences (NCATS), 2013)
# The campaign covered roughly 420,000 compounds. About 50,000 (12%) were called active. The shares of active, inactive and inconclusive entries below differ from those in the screen. Calls follow the shape of the dose curve; as a rule, active = well fitted inhibition curve with a large enough effect; inconclusive = small, poorly fitted or top-dose-only effect; inactive = flat fitted curve, though single readings scatter. Potencies of inconclusive entries are left out as doubtful fits.
# Test: qHTS for Inhibitors of human tyrosyl-DNA phosphodiesterase 1 (TDP1): qHTS in cells in presence of CPT; also: nearly all actives have a fitted effect of over 55% in size
# Conditions: chicken DT40 Tdp1-/-;hTDP1 cells + 20 nM CPT, ATP luminescence, 48 h; activity change, negative = growth inhibition: at 46.2 µM (top of the series) unless noted
# Method in brief: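 Chicken DT40 Tdp1-/- cells stably complemented with human TDP1 were seeded at 400 cells/well in medium containing 20 nM camptothecin, exposed to pin-transferred compounds, and grown at 37 °C for at least 48 hr. Viability was read as ATP luminescence.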
# % is scaled to controls: 0 for no effect and ±100 for the full control effect; potency is read from the fitted curve at half-maximal effect; tags tell the direction and shape of the fitted curve.
Structure (SMILES),Potency,"activity change, negative = growth inhibition"
CC(=O)CCc1c(C)c2cccc(C)c2[nH]c1=O,active: 18.4 µM,
COc1ccccc1S(=O)(=O)Cc1ccc(C(=O)NC2CCCCCC2)o1,"inconclusive [inhibitor, single point]",
O=C(N1CCOCC1)N1CCN(c2nc(-c3ccc(F)cc3)cs2)CC1,"inconclusive [inhibitor, single point]",
COc1ccc(CNC(=S)NC2CCCCC2)cc1,inactive,
COc1ccc(-c2nc(-c3ccccc3)nc(Cl)c2C#N)cc1,"inconclusive [inhibitor, single point]",
O=C(C1CCC1)N1CCCc2cc(S(=O)(=O)N3CCN(c4ccccc4)CC3)ccc21,active: 18.4 µM,
Cc1noc(C)c1C(=O)Nc1cccc(S(=O)(=O)N2CCCCC2)c1,"inconclusive [inhibitor, single point]",
CCN(CC)c1ccc2cc(C=O)c(=O)oc2c1,active: 29.1 µM,
CCOCCCNC(=O)/C(C#N)=C/c1ccccc1F,inactive,
CCCCNc1nc(-c2ccccc2)c(C(=O)OCC)cc1C#N,"inconclusive [inhibitor, partial curve, poor fit]",
C=CCn1c(=O)c2ccc(C(=O)NCc3ccccc3)cc2n(Cc2ccccc2Cl)c1=O,active: 8.2 µM,
Cc1cc(C)nc(N=Nc2c(O)n(Cc3ccc(Cl)cc3)c3ccccc23)n1,"inconclusive [inhibitor, single point]",
CCOC(=O)N1CCC(NC(=O)c2cc3c(-c4ccc(OC)c(OC)c4)nn(C)c3s2)CC1,"inconclusive [inhibitor, single point]",
COc1cccc(N2CCN(C(=O)C3Cc4ccccc4N3C(C)=O)CC2)c1 (centres undefined),,inconclusive: -32.9% [inhibitor]
CCOC(=O)N1CCN(c2nc3ccccn3c(=O)c2C=O)CC1,active: 14.6 µM,
CN(C/C=C/c1ccccc1[N+](=O)[O-])Cc1ccccc1,"inconclusive [inhibitor, single point]",
COc1ccccc1CNc1nc(NCc2ccc(NC(C)=O)cc2)c2sccc2n1,"inconclusive [inhibitor, single point]",
CN(C)C(=O)Nc1ccccc1CC[N+](=O)[O-],inactive,
Cc1nnc(SC(C)C(=O)NC2CCCCC2)s1 (centres undefined),inactive,
N#Cc1cccc(Oc2ccc(-c3cnc4ccccc4n3)cc2)c1C#N,inactive,
CCC(=O)Nc1ccccc1-c1nc2ccccc2n(CC(=O)c2ccc(Cl)cc2)c1=O,"inconclusive [inhibitor, single point]",
Cc1ccccc1CC1(CO)CCCN(C(=O)c2cccc(Cl)c2)C1 (centres undefined),inactive,
COc1ccc(NC(=O)c2sc(=O)n(Cc3ccc(SC)cc3)c2C)cc1OC,"inconclusive [inhibitor, single point]",

Structure (SMILES),Potency,"activity change, negative = growth inhibition"
CC(C)OC(=O)C(C(=O)C(F)(F)F)c1cc(NS(=O)(=O)c2ccc3c4c(cccc24)C(=O)N3)ccc1O (centres undefined),active: 11.6 µM,
Cc1cccc(-c2nc3ccccc3n2Cc2ccccc2)c1,"inconclusive [inhibitor, partial curve]",
CS(=O)(=O)Nc1ccc(C(=O)NCc2ccc3c(c2)OCO3)cc1,"inconclusive [inhibitor, full curve, poor fit]",
COC(=O)c1ccc(S(=O)(=O)N2CCCN(Cc3ccc(F)cc3)CC2)n1C,"inconclusive [inhibitor, single point]",
COc1cccc(OCc2nc3c4cnn(-c5ccccc5)c4ncn3n2)c1,"inconclusive [inhibitor, partial curve]",
CCN(CC)S(=O)(=O)c1ccc(N2CCN(C)CC2)c(NC(=O)Nc2ccc(C)cc2)c1,"inconclusive [inhibitor, single point]",
O=C(CN1C(=O)S/C(=C\c2ccc(C(=O)O)cc2)C1=O)Nc1ccccc1,inactive,
O=C(Nc1ccccc1N1CCCC1)c1cccc(F)c1,"inconclusive [inhibitor, single point]",
O=C(CSc1ncnc2scc(-c3ccc(Cl)cc3)c12)NCc1ccc2c(c1)OCO2,"inconclusive [inhibitor, single point]",
Cc1cc(C)n(C2=NS(=O)(=O)c3ccccc32)n1,"inconclusive [inhibitor, single point]",
CCOC(=O)c1c(C)[nH]c(CCC(=O)Nc2c(C)cccc2CC)c1C,"inconclusive [inhibitor, single point]",
C=CCn1c(CCNC(=O)c2cccs2)nnc1SCC(=O)Nc1cccc(Cl)c1C,"inconclusive [inhibitor, partial curve]",
Cc1ccc(S(=O)(=O)N2CCN3CCCC3C2)cc1 (centres undefined),inactive,
Cc1ccc(S(=O)(=O)c2nnn3c2nc(NC(C)C)c2sccc23)cc1,inactive,
CC1=C(C(=O)OCc2ccccc2)C(c2ccc(-c3ccccc3)cc2)NC(=O)N1CCCCCC(=O)O (centres undefined),"inconclusive [inhibitor, single point]",
Cc1noc(C)c1S(=O)(=O)N(C)C[C@H]1Oc2c(NC(=O)NC3CCCCC3)cccc2C(=O)N([C@H](C)CO)C[C@@H]1C,"inconclusive [inhibitor, single point]",
O=c1c2ccccc2c(-c2ccccc2)nn1-c1ccc(Cl)c(Cl)c1,"inconclusive [inhibitor, partial curve]",
O=C(C(=O)N1CCC(c2ccccc2)CC1)c1ccccc1,"inconclusive [inhibitor, single point]",
COc1ccc(Oc2ncc3nc(-c4cccc(C#N)c4)c(=O)n(Cc4cccc(OC)c4)c3n2)cc1,inactive,
COc1ccc(OC)c(-c2csc(NC(=O)C3COc4ccccc4O3)n2)c1 (centres undefined),"inconclusive [inhibitor, single point]",
Cc1cccc(NC(=O)CSc2cc(C)c(C#N)c3nc4ccccc4n23)c1,active: 18.4 µM,
COc1ccc2c(Sc3ccc(C)cc3)c(C(=O)NCc3ccc(F)cc3)[nH]c2c1,"inconclusive [inhibitor, partial curve, poor fit]",
COc1ccc(OC)c(Nc2cc(-c3ccccc3)nc(N)n2)c1,active: 0.651 µM,

Structure (SMILES),Potency,"activity change, negative = growth inhibition"
CN(C)C(=O)Oc1ccc[n+](C)c1,inactive,
O=c1c2cc(Br)ccc2[nH]c(=S)n1Cc1ccccn1,"inconclusive [inhibitor, single point]",
CCCn1c(N)c(N(CCOC)C(=O)CSCC(=O)Nc2ccc(OC)cc2)c(=O)[nH]c1=O,inactive,
COc1c(N)c2ccccc2[nH]c1=O,inactive,
COc1ccc(C2Sc3ccccc3N(CCN(C)C)C(=O)[C@@H]2OC(C)=O)cc1 (some centres undefined),"inconclusive [inhibitor, single point]",
COc1ccccc1NC(=O)C1=C(C)Nc2nc(CCCO)nn2C1c1cccc(O)c1 (centres undefined),inactive,
CCOC(=O)C1CCCN(C(=O)c2ccc3c(c2)CCO3)CC1 (centres undefined),"inconclusive [inhibitor, single point]",
Cc1ccc(CC2(C)C(=O)Nc3c(Cl)ccc(Cl)c32)cc1 (centres undefined),"inconclusive [inhibitor, partial curve, poor fit]",
O=C(Nc1ccc(Cl)cn1)c1ccccc1SCc1ccccc1,inactive,
NS(=O)(=O)c1ccc(CCNC(=O)COC(=O)/C=C/c2cc(Br)ccc2F)cc1,"inconclusive [inhibitor, full curve, poor fit]",
CCOc1ccc(CN(C)C(=O)CN2C(=O)NC(c3ccccc3)(c3ccccc3)C2=O)cc1,"inconclusive [inhibitor, single point]",
O=C(CCCn1c(=O)c2ccccc2n(Cc2cccc(Cl)c2)c1=O)NCCc1ccc(Cl)cc1,"inconclusive [inhibitor, single point]",
O=C(NCCc1ccccc1)c1cnc2sccn2c1=O,inactive,
C=CCOC(=O)C(=O)/C=C/c1ccc2c(c1)Cc1ccccc1-2,"inconclusive [inhibitor, single point]",
Cc1ccc(S(=O)(=O)N2CCCc3cc(NS(=O)(=O)c4cc(F)ccc4F)ccc32)cc1,active: 23.1 µM,
CC(C)N(Cc1nccn1C)C(=O)c1cc(COc2ccc3ncccc3c2)on1,"inconclusive [inhibitor, single point]",
CN(Cc1ccccc1)C(c1cc2ccccc2o1)c1nnnn1C(C)(C)C (centres undefined),"inconclusive [inhibitor, single point]",
CCn1c2ccccc2c2cc(NC(=O)Cc3ccc(S(=O)(=O)N4CCOCC4)s3)ccc21,"inconclusive [inhibitor, single point]",
CCOc1ccc(C(C(=O)Nc2ccc(F)cc2)N(C(=O)Cn2nnc3ccccc32)C2CC2)cc1 (centres undefined),inactive,
Cc1ccc(S(=O)(=O)Nc2cccc3c2O[C@H](CN(C)C(=O)Nc2ccc(C(F)(F)F)cc2)[C@@H](C)CN([C@H](C)CO)C3=O)cc1,active: 16.4 µM,
CCN(CC)C(=O)CC(c1ccc(F)cc1)c1ccco1 (centres undefined),"inconclusive [inhibitor, single point]",
O=C(CSc1nc2c(oc3ccccc32)c(=O)n1-c1ccccc1)Nc1ccccc1F,"inconclusive [inhibitor, single point]",
O=C(NCc1ccc(F)cc1F)[C@@H]1CCCN1C(=O)[C@@H]1CCCN1C(=O)c1cccc2ccccc12,"inconclusive [inhibitor, single point]",
